# The campaign covered roughly 310,000 compounds. About 11,000 (3.5%) were called active. Inconclusive results, whose numbers are uncertain, are shown with a selection of clear calls. Calls come from the whole dose curve; as a rule, active = well fitted inhibition curve with a large enough effect; inconclusive = small, poorly fitted or top-dose-only effect, or effect the other way; inactive = flat fitted curve, though single readings scatter. Potencies of inconclusive entries are left out as doubtful fits.
# Experiment: VP16 counterscreen qHTS for inhibitors of ROR gamma transcriptional activity;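 note: Gal4-VP16 expression switched on by copper sulfate through the metallothionein promoter; nearly all actives have a fitted effect of over 50% in size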
# Settings: Drosophila S2 Gal4-VP16 UAS-luciferase, luminescence, 20 h; series mostly up to 53.6 µM
# Potency is the fitted concentration of half-maximal effect; tags give direction and shape of the fitted curve.
row,SMILES,Potency
1,CCNc1nc2c(c(=O)n(C)c(=O)n2C)n1CCCc1ccccc1,active: 11.2 µM
2,COc1ccccc1-c1nccc(NCc2cccc(C)c2)n1,"inconclusive [inhibitor, single point]"
3,CC(=O)NC12CC3CC(C1)CC(C(=O)OCC(=O)c1ccc4c(c1)OCCO4)(C3)C2,"inconclusive [inhibitor, single point]"
4,COc1ccccc1NCC(=O)N/N=C/C=C/c1ccccc1,"inconclusive [inhibitor, single point]"
5,COc1ccc(OC)c(N=c2oc3cc(O)ccc3cc2C(N)=O)c1,inactive
6,Cc1ccc(S(=O)(=O)N2CCOCC2)cc1C(=O)NC(=S)N1CC(C)OC(C)C1 (centres undefined),active: 15.8 µM
7,O=C(CCCN1C(=O)/C(=C/c2ccccc2Cl)SC1=S)NNC(=O)c1ccccc1,active: 7.08 µM
8,CNC(=O)c1cc(S(=O)(=O)NCc2ccncc2)ccc1OC,"inconclusive [inhibitor, single point]"
9,COc1cc2nccc(Oc3ccc(NC(=O)Nc4ccc(F)cc4F)c(F)c3)c2cc1OC,"inconclusive [inhibitor, partial curve, poor fit]"
10,O=C1/C(=C/c2ccccc2Cl)SC(=S)N1CCCC(=O)N(CCO)c1ccccc1,"inconclusive [inhibitor, partial curve]"
11,COc1ccc(-c2csc(Nc3cc(C)ccn3)n2)cc1OC,"inconclusive [inhibitor, partial curve]"
12,Cc1ccc(C(=O)N2CCN(c3ccc(NC(=S)NC(=O)Cc4ccccc4)cc3)CC2)cc1,active: 8.91 µM
13,NC(=S)NC(=O)/C=C/c1ccccc1,"inconclusive [inhibitor, single point]"
14,CC(=O)Nc1nc2ccccc2n1CCN(C)C,"inconclusive [inhibitor, single point]"
15,COc1cc(N=c2ssnc2Cl)cc(OC)c1,active: 7.08 µM
16,COc1cc(NC(=O)CCS(=O)(=O)c2ccc3c(c2)n(C)c(=O)c(=O)n3C)cc(OC)c1,inactive
17,CCOc1ccc(-c2n[nH]c(C)c2Oc2ccc(OC)cc2)c(O)c1,active: 5.01 µM
18,CC1CCCCN1C(=O)C(=O)c1cn(CC(=O)N2CCCCCC2)c2ccccc12 (centres undefined),inactive
19,Cc1ccccc1CS(=O)(=O)c1cnc2ccccc2n1,inactive
20,c1ccc(OCc2nnc3n2CCCCC3)cc1,"inconclusive [inhibitor, full curve, poor fit]"
21,O=C(NNc1nc(-c2ccccc2)c2cc(Br)ccc2n1)c1ccc(S(=O)(=O)N2CCCCC2)cc1,inactive
22,O=C(N/N=C(\c1ccccc1)c1ccccn1)c1ccccc1Cl,active: 1.12 µM
23,O=C(COc1ccc(Cl)cc1)NNC(=O)c1ccccn1,"inconclusive [inhibitor, single point]"
24,CCOc1ccc(-c2nc(C#N)c(NC3CC3)o2)cc1,"inconclusive [inhibitor, single point]"
25,Cc1nnc(SCc2nnc(-c3ccccc3Br)o2)s1,inactive

row,SMILES,Potency
1,COc1ccc2[nH]cc(/C=N/NS(=O)(=O)c3ccc(C)cc3)c2c1,"inconclusive [inhibitor, single point]"
2,CCOC(=O)c1ccc(N2C(=O)CC(N3CCCC(C)C3)C2=O)cc1 (centres undefined),"inconclusive [inhibitor, single point]"
3,COc1ccc(C(C)=O)cc1CSc1nc(C)cc(C)n1,inactive
4,O=C(CSc1nnc(CNC(=O)c2ccccc2F)o1)NC1CCCCC1,inactive
5,CC(NC(=O)CCCOc1ccc(Cl)cc1)c1ccccc1 (centres undefined),inactive
6,CC(C)(C)c1cn(-c2ccccc2)c(=S)[nH]1,active: 7.94 µM
7,C=C(C)CSCc1nc2ccccc2[nH]1,"inconclusive [inhibitor, single point]"
8,Cc1ccc(-c2nc(P(=O)(c3ccccc3)c3ccccc3)c(N3CCOCC3)o2)cc1,active: 15.8 µM
9,CC(C)(C)OC(=O)NN=C(c1ccc(O)cc1)c1ccc(O)cc1,inactive
10,O=C(NC(=S)Nc1cc(Cl)ccc1O)c1cccc(Br)c1,active: 3.55 µM
11,O=C(O)c1ccc(C(=O)Nc2cccc(NC(=O)C3CCCO3)c2)cc1 (centres undefined),inactive
12,O=C1CSC(=Nc2ccc(F)cc2)N1,inactive
13,COc1ccc(NC(=O)CSc2nc3ccccc3c(=O)n2C)cc1,"inconclusive [inhibitor, single point]"
14,CC(=O)NCCc1nc2cc(NC(=O)c3ccc(Cl)cc3)ccc2n1C,"inconclusive [activator, single point]"
15,Fc1ccc(NC(=S)NCCN2CCOCC2)c(F)c1F,"inconclusive [activator, single point]"
16,COc1ccc(-n2c(NC(=O)c3ccc(Br)o3)c(C#N)c3nc4ccccc4nc32)cc1,"inconclusive [inhibitor, single point]"
17,CC1CCc2c(sc(NC(=O)c3cccs3)c2C(=O)O)C1 (centres undefined),"inconclusive [activator, partial curve, poor fit]"
18,Cc1cc(-c2ccccc2)c(C#N)c(=S)[nH]1,"inconclusive [inhibitor, full curve, poor fit]"
19,CC1CCCC(C)N1/N=C/c1cc(Br)cc(Br)c1O (centres undefined),"inconclusive [inhibitor, single point]"
20,CCCn1c(SCC(=O)c2ccc3c(c2)OCCO3)nnc1C(C)C,"inconclusive [activator, single point]"
21,CCOc1cc(/C=C(\C#N)c2nc3ccccc3[nH]2)ccc1OC(C)C(=O)O (centres undefined),inactive
22,Cc1ccc(-n2nnnc2SCc2ccccn2)cc1C,"inconclusive [inhibitor, single point]"
23,O=C(/C=C/c1ccccc1)Nc1ccc2c(c1)C(=O)NC2=O,"inconclusive [inhibitor, partial curve]"
24,Fc1ccc(-n2nnc(-c3cnc4ccccc4c3)n2)cc1,"inconclusive [inhibitor, full curve]"

# From PubChem BioAssay AID2546 (National Center for Advancing Translational Sciences (NCATS), 2010)
